Data reported in PubChem BioAssay AID1030 (National Center for Advancing Translational Sciences (NCATS), 2008).
The whole screen tested about 220,000 compounds, of which about 16,000 (7.3%) were called active. The shares of active, inactive and inconclusive entries below differ from those in the screen. The call rests on the fitted dose curve; in most records, active means well fitted inhibition curve with a large enough effect (not every such curve was filed as active); inconclusive means small, poorly fitted or top-dose-only effect, or another doubt; inactive means no such curve, though single readings can be large or run the other way. A potency beside an inconclusive call is a rough fit, not a confirmed value.

These compounds were tested against Aldehyde dehydrogenase 1A1 (Homo sapiens) (UniProt P00352) (assay: qHTS Assay for Inhibitors of Aldehyde Dehydrogenase 1 (ALDH1A1)). Conditions: Purified ALDH1A1, NADH fluorescence, propionaldehyde substrate; series mostly up to 75.3 µM; activity, negative = inhibition: at the top concentration.
Chain of UniProt P00352 (P00352 whole entry, looked up): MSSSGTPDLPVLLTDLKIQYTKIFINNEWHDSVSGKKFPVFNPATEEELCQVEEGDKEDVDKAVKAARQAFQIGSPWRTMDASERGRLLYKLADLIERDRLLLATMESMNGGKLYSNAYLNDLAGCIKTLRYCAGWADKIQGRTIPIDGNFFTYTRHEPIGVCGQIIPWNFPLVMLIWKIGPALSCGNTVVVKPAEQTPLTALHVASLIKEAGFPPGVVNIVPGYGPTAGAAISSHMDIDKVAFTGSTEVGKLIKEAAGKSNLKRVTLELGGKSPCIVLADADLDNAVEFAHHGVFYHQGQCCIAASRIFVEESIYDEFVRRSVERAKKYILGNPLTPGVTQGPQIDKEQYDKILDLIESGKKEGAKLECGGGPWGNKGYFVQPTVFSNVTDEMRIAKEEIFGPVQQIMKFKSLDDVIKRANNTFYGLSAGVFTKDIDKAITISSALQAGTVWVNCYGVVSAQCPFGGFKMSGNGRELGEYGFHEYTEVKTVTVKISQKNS
Potency means the concentration at half of the fitted maximal effect; tags describe the fitted curve by direction and shape.
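Wherever activity, negative = inhibition is given: plate controls were no enzyme wells and a reference inhibitor.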

Potency, active:
CCOC(=O)c1cc(C)nc(SC)c1C#N 39.8 µM
OC1(c2cccnc2)CCN(Cc2nnnn2Cc2ccccc2)CC1 15.8 µM
Cc1csc2c(N3CCN(C(=O)c4ccc(C(C)(C)C)cc4)CC3)ncnc12 15.8 µM
O=C(COc1ccc([N+](=O)[O-])cc1)Nc1ccc(C(=O)Nc2ccccc2C(=O)O)cc1 12.6 µM
C=CCn1c(SCC(=O)Nc2cc3oc4ccccc4c3cc2OC)nnc1-c1cnccn1 28.2 µM
CCN(C(=O)c1ccccc1)c1ccc([N+](=O)[O-])cc1 5.01 µM

Potency, inconclusive:
CCc1ccc(/C=C2/C(=O)N(CC)C(=S)N2C)s1 10 µM [inhibitor, partial curve]
COc1ccccc1Cn1c(=S)[nH]c2cc(C(=O)NCC3CCCO3)ccc2c1=O (stereo unspecified) 1.78 µM [inhibitor, full curve]
CC1CCC(=NNC(=O)Cc2ccccc2)CC1 (stereo unspecified) 0.0224 µM [inhibitor, full curve, poor fit]
COC(=O)N/N=C/c1cn(CCCOc2ccc(C)cc2)c2ccccc12 22.4 µM [inhibitor, partial curve]
CCOc1ccc(OCC)c(S(=O)(=O)NNC(=O)c2c(C)nc3ccccn23)c1 25.1 µM [inhibitor, single point]
Nc1ccc(-c2n[nH]c(=O)c3ccccc23)cc1N 37.7 µM [inhibitor, single point]
O=C1c2ccccc2C(=O)N1CCn1nc(Cl)nc1Cl 28.2 µM [inhibitor, single point]
COc1ccc(CN(C)CC(=O)Nc2ccccc2C(F)(F)F)c(OC)c1 31.6 µM [inhibitor, partial curve]
COc1ccc(NC(=O)Cc2c[nH]c3ccccc23)cc1S(=O)(=O)N1CCCCC1 44.7 µM [inhibitor, single point]
CSc1nnc(-c2cccn(Cc3cccc(Cl)c3)c2=O)o1 35.5 µM [inhibitor, partial curve]
Cc1cc(C(=O)COC(=O)/C=C/c2cccc(F)c2)c(C)n1C 7.94 µM [inhibitor, partial curve]
Cc1onc(-c2c(Cl)cccc2Cl)c1C(N)=S 10 µM [inhibitor, partial curve, poor fit]
O=C(O)CC12CSc3[nH]c(=O)sc3C1c1ccccc1OC2=O (stereo unspecified) 22.4 µM [inhibitor, partial curve]
CCN1CCN(CC(O)COc2ccc3c(C)cc(=O)oc3c2)CC1 (stereo unspecified) 25.1 µM [inhibitor, partial curve]
O=C(NNS(=O)(=O)c1ccc(CCCl)cc1)C(O)(c1ccccc1)c1ccccc1 28.2 µM [inhibitor, single point]
O=C(Nc1ccn(Cc2ccc(Cl)cc2)n1)c1ccc2c(c1)OCO2 39.8 µM [inhibitor, single point]
COc1ccc(C(=O)/C=C/c2cn(CN3CCN(C)CC3)c3ccccc23)cc1 39.8 µM [inhibitor, single point]
O=C(CC1CCCC1)NCCc1cn2ccccc2n1 31.6 µM [inhibitor, partial curve]
O=C(Nc1ccc2c(c1)C(=O)NC2=O)c1ccc(S(=O)(=O)N2CCCC2)cc1 28.2 µM [inhibitor, partial curve]
COc1ccc(Cc2nnc(SCc3nc4ccccc4c(=O)[nH]3)n2C)cc1 39.8 µM [inhibitor, single point]
CNCc1cc2ccc(C)cc2[nH]c1=O 28.2 µM [inhibitor, single point]
CCC(Sc1ncccc1C(=O)OC(C)C)C(=O)N1CCOCC1 (stereo unspecified) 39.8 µM [inhibitor, single point]
O=[N+]([O-])c1cccc(C2=N[C@@H](Cc3ccccc3)CO2)c1 28.2 µM [inhibitor, partial curve]
C=CCn1c(CNC(=O)c2cccs2)n[nH]c1=S 39.8 µM [inhibitor, single point]
C#CCSc1nnc(-c2sc(-c3ccccc3)nc2C)n1C 31.6 µM [inhibitor, partial curve]
CN1C(=O)/C(=C/c2ccccc2Cl)Sc2ccc(C(=O)NCc3cccnc3)cc21 39.8 µM [inhibitor, single point]
O=C1CCc2cc(S(=O)(=O)N3CCC(C(=O)NC4CCCCCCC4)CC3)ccc2N1 10 µM [inhibitor, partial curve]
COc1ccc2cc(CN(CCCN3CCOCC3)Cc3nnnn3C3CCCC3)c(=O)[nH]c2c1 15.8 µM [inhibitor, partial curve]
CCOCC(=O)Nc1nnc(Cc2ccc(OC)cc2)s1 25.1 µM [inhibitor, single point]
COc1cc(C(=O)N/N=C/c2sc(=O)n(-c3ccccc3)c2Cl)cc(OC)c1OC 39.8 µM [inhibitor, single point]
O=C(NCc1ccc2c(c1)OCO2)c1cc(-c2ccccc2)on1 22.4 µM [inhibitor, partial curve]
CC(=O)N1CCN(CC(=O)Nc2ccccc2Sc2ccc(Cl)cc2)CC1 39.8 µM [inhibitor, single point]
N#Cc1cc(C#N)c(N2CCN(c3ccccn3)CC2)nc1N 44.7 µM [inhibitor, single point]
O=S(=O)(c1ccccc1)c1cnc(-c2ccccc2)nc1N1CCCC1 12.6 µM [inhibitor, partial curve]
Cc1ccc(S(=O)(=O)C(C#N)c2nc3ccccc3nc2N2CCCC2)cc1C (stereo unspecified) 28.2 µM [inhibitor, partial curve]
COc1ccc(/C=N/Nc2nc(Nc3ccccc3)nc(N3CCCCC3)n2)cc1OC 20 µM [inhibitor, single point]
CCOCc1nnc(NC(=O)c2ccco2)s1 39.8 µM [inhibitor, single point]
C=CCNc1sc(C(=O)c2ccccc2)c(N)c1C#N 25.1 µM [inhibitor, partial curve]
CC1CCN(C(=O)CSc2nc(N)c3c4c(sc3n2)CN(C)CC4)CC1 35.5 µM [inhibitor, partial curve]
O=C(Nc1ccccc1C(=O)NC(Cc1ccccc1)C(=O)NC1CCCCCC1)c1ccccc1 (stereo unspecified) 35.5 µM [inhibitor, single point]
CCOC(=O)C(C(=O)c1ccccc1)C1CC(C)NC(=S)N1 (stereo unspecified) 39.8 µM [inhibitor, single point]
CC(C)(C)c1ccc(/C=C2\SC(=O)N(CCNC(=O)c3cccc(S(=O)(=O)N4CCOCC4)c3)C2=O)cc1 8.91 µM [inhibitor, partial curve]
Cc1ccc(Cn2ccc(NC(=O)CCSc3nc(-c4ccco4)cc(C(F)(F)F)n3)n2)cc1 39.8 µM [inhibitor, single point]

activity, negative = inhibition, inactive:
O=C(N=C1SCC(=O)N1c1ccccc1Cl)c1ccco1 -15.2%
CC1=NN(c2ccc(C)cc2C)C(=O)C1C(c1ccccc1O)C1C(=O)N(c2ccc(C)cc2C)N=C1C (stereo unspecified) -12.4%
CN(C)/N=C/c1cn(-c2ccccc2)nc1-c1cccnc1 -3.55%
CNC(=S)N(CCc1c(C)[nH]c2ccc(C)cc12)Cc1ccc(OC)c(OC)c1 4.32%
C/C(=N\O)C(C)(C)NC(=O)Nc1ccc(Cl)cc1 4.53%
Cc1onc(-c2ccccc2Cl)c1C(=O)OCc1cnc(Cl)s1 8.49%
COc1cc(CNC2CCCC2)c(Br)cc1OCc1ccccc1 4.19%
COc1ccc([N+](=O)[O-])cc1NC(=O)C(C)OC(=O)C1c2ccccc2Oc2ccccc21 (stereo unspecified) 4.85%
CS(=O)(=O)N1CCC(C(=O)Nc2ccc3c(c2)OCCO3)CC1 7.5%
O=C(Nc1ccccc1)c1cc2n(n1)C(C(F)(F)F)CC(C1CC1)N2 (stereo unspecified) 11.2%
COC(=O)c1sc(N2C(=O)c3oc4ccccc4c(=O)c3C2c2cccs2)nc1C (stereo unspecified) -4.41%
CCc1nnc(NC(=O)CSc2nnc3c(C)cc4c(C)ccc(C)c4n23)s1 4.5%
O=C(Nc1ccc(Cl)c(Cl)c1)Nc1ccccc1NS(=O)(=O)c1cccs1 7.85%
Cc1cc([N+](=O)[O-])ccc1NC(=O)CSc1nccc(=O)[nH]1 -9.71%
Cn1c(CCNC(=O)C2CCCCC2)nc2cc(NC(=O)c3cccs3)ccc21 5.87%
CCCCCn1c(CN2CCN(Cc3ccccc3)CC2)nc2c1c(=O)[nH]c(=O)n2C 2.52%
CCOc1ccc(C2/C(=C(/O)c3ccc(OC)cc3)C(=O)C(=O)N2c2cc(C)on2)cc1OC (stereo unspecified) -6.53%
CCCC(=O)N(c1ccc2oc(=O)sc2c1)S(=O)(=O)c1cccs1 -14%
OCCC#Cc1ccc(CN2CCN(Cc3ccsc3)C(CCO)C2)cc1 (stereo unspecified) 3.08%
COc1ccc(N(CC(=O)NC2CCCCC2)C(=O)CNC(=O)c2ccco2)cc1OC 1.96%
O=c1nc(/C=C/c2cccn2-c2ccc([N+](=O)[O-])cc2)cc(C(F)(F)F)[nH]1 -0.602%
O=C1CC(N2CCC(O)(c3ccc(Br)cc3)CC2)C(=O)N1c1ccc(Cl)cc1 (stereo unspecified) -11.4%
